The test system of this data set is ATP. The data set is described as follows: switch fluorescence ratio, 500 uM ATP over buffer (Cy3 cluster intensity, sum of 5 cycles each) (fold (ratio)); higher = stronger signal-on switching upon ATP binding; sequences stand for … in TCGTCGGCAGCGTCAGATGTGTATAAGAGACAGTTTTTTTTTTTTTTTTTTTTTTTTT…TC. As to conditions: aptamer strand: ATP DNA aptamer (quencher-CACCTGGGGGAGTATTGCGGAGGAAGG + anchor), 100 nM annealed; ATP concentration: 500 uM; one replicate. The gist of the method:
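The quencher-labelled ATP aptamer, at 100 nM, was annealed to Cy3-labelled switching-strand clusters on a modified Illumina MiSeq flow-cell. The clusters were imaged in selection buffer, then after 15 min with 500 uM ATP at 22 °C, and this buffer/ATP cycle ran five times with NaOH stripping and re-annealing between runs. Per-cluster fluorescence ratios, summed target-cycle over summed buffer-cycle Cy3 intensity, were averaged per switch-domain sequence. Clusters outside 100-1000 RFU were excluded.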

Values marked as one replicate rest on one cluster of the flow cell; about a third of the high ones do not repeat.
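Also: ATP exposure 15 min at 22 °C before imaging.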

In the case of GATGTTAATG, the switch fluorescence ratio is 0.987.
Under CGGGTTCAAT stands 0.99; under AGCCAACCGC, 1.03; under GAGAACGTTT, 1.03.
Under TTCTTTACGT stands 1.01.
Under AGGAGGCAAT stands 1.16; under TGGGAGGCCG, 1.05.
Take GAGACCCCTG: the switch fluorescence ratio came to 1.
Next, AAACCTCTTT: 0.995.
Next, ACCGAAGTCC: 1.38; GGTGCGTAAT: 1.
Under CGAGGATCGG stands 1.02.
With CCCAGCCTCG, the switch fluorescence ratio was determined as 1.04.
Next, TGGTACGCCT: 1.
On to TGAGGAAGCG, for which the switch fluorescence ratio was 1.03.
Next, GGCTACACCT: 1.15; AATATATAGT: 0.984; CGCGTGCCAA: 1.08.
Next, ATGGACGGGC: 1.1; GGCGCCGTAA: 1.03.
Next, GGTGTCGGG: 0.992; GGTGCTCCCC: 1.54.
As to TAACGTGATC, the switch fluorescence ratio amounted to 2.05.
In the case of TCGGGGTCG, the switch fluorescence ratio is 1.06.
Under TCTGAGGGTC stands 1.02.
Turning to TGCATGTGTA, the switch fluorescence ratio amounted to 1.05.
Next, ATAGGAGGC: 0.944.
Next, ACTGATGGTC: 0.989; TATGCACTCA: 1.09; ACAAATGTCG: 0.943.
Under GGCTTTTAAT stands 1.06; under TGTATCGGGA, 0.991.
For TAATAGGCGT, the switch fluorescence ratio stood at 0.984.
Consider GTTATCGAAA, for which the switch fluorescence ratio stood at 1.
On to ACGCTTCAAT, for which the switch fluorescence ratio came out at 1.1.
Turning to CGCGCAGGAT, the switch fluorescence ratio is 1.06.
Next, CTTGAAGAGT: 0.954; CGGGCCCTTG: 1.
Consider ATATAAAGGT, for which the switch fluorescence ratio worked out at 0.967.
Under TCCCTCGGAT stands 1.
Next, GAAACTAAAC: 1.07; CGAGCCTTAG: 1.05; CAGAGGCATG: 1.07.
For CGTAGGCATC, the switch fluorescence ratio was found to be 1.05.
Next, TTCGTCCATC: 1.
Under TAGAGGATAA stands 0.976; under GCCGCTGTCA, 0.991.
Under GGGTTCTCGA stands 0.972.
CTGCGGGGAA: the switch fluorescence ratio was 1.03.
For the sequence AACGTGCGTA, the switch fluorescence ratio was 1.
Under GTAAAGGTAC stands 1.04; under TTAGCTCACG, 1.04; under CAGGAACAGC, 1.04.
For the sequence ATGACTTTTT, the switch fluorescence ratio was found to be 0.993.
Under TTAGGGTAGT stands 1.02; under AATAGTGCTT, 0.998; under TGAGTCGGTT, 0.959.
Next, TAGTCGTCTT: 1.01; AATTAGCAA: 1.68; TTTTGTGCT: 1.05.
Under TACTGTTAAG stands 0.958.
On to GCGATGGGGG, for which the switch fluorescence ratio stood at 1.03.
CTAACCATCA: the switch fluorescence ratio came out at 1.05.
On to TTGCTGAACG, for which the switch fluorescence ratio came to 1.
Next, TCGGAGCCCG: 1.06; GATTTGGATC: 0.955; CTCGAAGGGG: 0.991.
Under ACGACCGGCC stands 1.72; under AGACCGAAGT, 1.05; under ATCGGCAAAA, 1.23.
Under CAGAGGCGGA stands 0.968.
With TGATACGTTA, the switch fluorescence ratio is 1.02.
Under TGCATTACAT stands 1.06; under TAAAGCACCT, 1.07; under GACCTATCCC, 1.15.
Under ACGTTCCGCC stands 1.93; under GTAGCTGTTG, 0.948.
Next, TTACATCGAC: 1.05; TGGCCTCACG: 1.03.
Take CATGGCTAGC: the switch fluorescence ratio stood at 1.01.
For GCGTTGAATT, the switch fluorescence ratio was 1.01.
Next, ATACACCGCC: 1.28; GAGGGCCCTC: 1.02; CGTCCTACAC: 1.39.
Under TATCCATAGG stands 1.04; under TTAGTCCACC, 1.04; under GCCTTGGTTT, 0.982.
Next, GGGTCCGTCG: 0.991; GCGCGTTCA: 0.995; TAACCATCAT: 1.06.
In the case of ATCCCTTACG, the switch fluorescence ratio is 1.04.
As to CAATTAGGTA, the switch fluorescence ratio was 1.
Regarding ACCCTGTGGG, the switch fluorescence ratio came out at 0.974.
Under GGATTATAGA stands 0.971; under CTCAATTGGT, 0.994; under CGCGGCTTTG, 1.07.
Next, GGAAGGAATT: 1.02.
Under ACTATTAACA stands 1.01.
Take GCCCCGTATC: the switch fluorescence ratio was 1.08.
Turning to TCGCTCATAA, the switch fluorescence ratio is 1.2.
Turning to GAAAACGTCT, the switch fluorescence ratio was 0.992.
As for AAGTCGGGCC, the switch fluorescence ratio was found to be 1.
Under TTGAAGGGAT stands 1.11; under ACACTGTTGC, 1.02; under AGTTCTCTTC, 1.02.
With TTAAAACTAC, the switch fluorescence ratio worked out at 1.06.
For the sequence CCTCTGAGGT, the switch fluorescence ratio turned out to be 1.12.
Take TGATCTTAAG: the switch fluorescence ratio is 0.98.
Under GTTCACGCAT stands 1.22; under GGGTCGACTC, 0.991.
As for ATCAGCCGAG, the switch fluorescence ratio worked out at 1.02.
Under TCTCCATCCG stands 1.22; under TCGGGGAGTA, 1.04.
Under CGCAGGATT stands 1.11; under GTAGGAAACG, 1.31; under TAATTCAATA, 1.07.
Under ACGGACTCTG stands 1.04; under GTAAATGGGT, 0.955.
CAAATATCGA: the switch fluorescence ratio stood at 0.995.
Regarding TGGATGTGCC, the switch fluorescence ratio is 0.911.

The values above are taken from the supplement of paper PMC10126150.
